Assay results: PubChem BioAssay AID686970 (National Center for Advancing Translational Sciences (NCATS), 2013)
Among all 360,000 compounds or so, about 6,000 (1.7%) were called active. The inconclusive results got no clear call from the source; some entries with a clear call stand among them for comparison. Calls follow the shape of the dose curve; as a rule, active = well fitted cell-killing curve with a large enough effect; inconclusive = small, poorly fitted or top-dose-only effect, or effect the other way; inactive = flat fitted curve, though single readings scatter. Potencies of inconclusive entries are left out as doubtful fits.

Assay: qHTS for induction of synthetic lethality in tumor cells producing 2HG: qHTS for the HT-1080-NT fibrosarcoma cell line;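 also: NT is the 2HG producing partner of a matched IDH1 knockdown line; nearly all actives have a fitted effect of over 55% in size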;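 as to activity, negative = less viability: 0% = DMSO-treated cells and -100% = media-only wells without cells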
Settings: HT-1080-NT fibrosarcoma viability, CellTiter-Glo ATP luminescence, 48 h; activity, negative = less viability: at 46.1 µM (top of the series) unless noted
Method in brief: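 Fibrosarcoma NT cells, 750 per well in 5% FBS RPMI, were exposed to compound for 48 hours. Viability: CellTiter-Glo luminescence.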
Potency is read from the fitted curve at half-maximal effect; tags tell the direction and shape of the fitted curve.

SMILES	activity, negative = less viability	Potency
CCc1ccc(CNC(=O)c2nn(C)c3c2CS(=O)(=O)c2ccccc2-3)cc1	inconclusive: -0.127%	–
COc1ccc(N2CCN(c3nc4c(c(=O)n(C)c(=O)n4C)n3Cc3ccccc3)CC2)cc1	inactive: -17.3%	–
CC(c1ccccc1)N1CCn2c(nc3cc(NC(=O)c4cccs4)ccc32)C1 (stereo unspecified)	–	inconclusive [cytotoxic, single point]
Cc1ccc(SCC(=O)NNC(=O)c2ccccc2)c(C)c1	inactive: 17.6%	–
CCOC(=O)c1ccc(N2C(=O)c3n[nH]c(C)c3C2c2ccc(OC)cc2)cc1 (stereo unspecified)	–	inconclusive [cytotoxic, single point]
O=C(CCCSc1nc(-c2ccco2)cc(C(F)(F)F)n1)Nc1ccc2c(c1)OCO2	inactive: -23.1%	–
O=C1/C(=C\c2ccc3ccccc3c2)CCCc2ccccc21	–	inconclusive [cytotoxic, single point]
NC(=O)Cn1c(=O)n(-c2ccccc2)c(=O)c2oc3ccccc3c21	–	inconclusive [rising, single point]
CC(=O)c1ccc(OC2(C)CCN(Cc3ccc(OC(F)(F)F)cc3)C2)cc1 (stereo unspecified)	inactive: -7.73%	–
CC1(C)OC(=O)C(=Cc2ccc(-c3ccc(S(N)(=O)=O)cc3)o2)C(=O)O1	–	inconclusive [cytotoxic, single point]
COC(=O)c1ccc(NC(=O)c2nc(S(=O)(=O)Cc3cccc(C)c3)ncc2Cl)cc1	–	active: 11.6 µM
COc1ccccc1C(=O)NC(=O)COC(=O)c1ccc([N+](=O)[O-])cc1Cl	inactive: 8.42%	–
CCC1(OC(=O)CN(C)C)C(=O)OCc2c1cc1n(c2=O)Cc2cc3c(N)cccc3nc2-1 (stereo unspecified)	–	active: 7.31 µM
Cc1cnc(C)c(Nc2nc(C(N)c3ccccc3)cs2)n1 (stereo unspecified)	–	inconclusive [cytotoxic, single point]
O=C(Cn1c(=O)n(CC2CCCO2)c(=O)c2ccccc21)c1ccc(Cl)c(Cl)c1 (stereo unspecified)	–	inconclusive [cytotoxic, partial curve]
Cc1ccc(NC(=O)c2ncn(CCCNCC3CCCCC3)n2)cc1C	–	inconclusive [cytotoxic, single point]
COc1cccc(CNC(=O)Cn2ccc3cc(S(=O)(=O)N4CCCC4)ccc32)c1	inactive: -22.4%	–
COCCCNCCCOc1ccc(Cl)cc1C(C)(C)C	–	inconclusive [cytotoxic, single point]
COc1cccc(C2c3[nH]c4ccccc4c3C[C@H]3C(=O)N(C4CCN(Cc5ccccc5)CC4)CC(=O)N23)c1 (stereo partly specified)	–	inconclusive [cytotoxic, single point]
O=C(NCc1ccccc1CN1CCOCC1)c1ccc(-n2cccn2)cc1	inactive: -2.43%	–
COC(=O)CN1C(=O)[C@H]2[C@@H](/C=C/c3ccccc3)N3C(=O)CN(Cc4ccc(-c5ccccc5)cc4)C(=O)[C@@]3(C)[C@H]2C1=O	–	inconclusive [cytotoxic, single point]
COc1ccc(C(=O)N2CCc3cc(OC)c(OC)cc3C2)cc1OC	–	inconclusive [cytotoxic, partial curve]
COc1ccc(Cl)c(N2CCN(CCCNC(=O)Nc3ccc(C)cc3)CC2)c1	–	inconclusive [cytotoxic, single point]
CSc1ccc(Cn2c(C)c(C(=O)NCc3ccc(F)cc3)sc2=O)cc1	inactive: -16%	–

SMILES	activity, negative = less viability	Potency
Cc1nc(CN2CCCCC2)cc(=O)[nH]1	inconclusive: -7.6% [cytotoxic]	–
COc1nccnc1NS(=O)(=O)c1ccc(NC(=S)NC(=O)c2ccccc2)cc1	–	inconclusive [cytotoxic, partial curve]
COCCNC(=O)/C(C#N)=C/c1cccc(/C=C(\C#N)C(=O)NCCOC)c1	–	inconclusive [cytotoxic, single point]
CN1CCN(C2Cc3ccc(F)cc3Sc3cc(F)c(Cl)cc32)CC1 (stereo unspecified)	–	active: 25.9 µM
C=CCNC(=O)NC(=O)COC(=O)C(C)Oc1ccc(Cl)cc1Cl (stereo unspecified)	inactive: 12.4%	–
COc1cc(Br)ccc1C1CC(=O)C(C)C(c2ccc(Br)cc2OC)N1 (stereo unspecified)	inactive: -1.49%	–
CC1(C)OC(=O)C(=CNc2ccc(F)cc2)C(=O)O1	–	inconclusive [cytotoxic, single point]
COc1cc(C(=O)NC(=S)NCc2ccco2)cc(OC)c1OC	–	inconclusive [cytotoxic, single point]
COc1ccc(C(=O)C(=NNc2ccccc2)c2ccc(OC)cc2)cc1	inactive: 8.76%	–
CCCCN(C)CCNC(=O)C(NC(=O)C1CCC(C)CC1)C(C)C (stereo unspecified)	–	inconclusive [rising, single point]
O=C(N/N=C/c1ccccc1O)c1cccc(C(F)(F)F)c1	–	inconclusive [cytotoxic, full curve]
Cc1cc(C(=O)CSc2nnc(-c3ccccc3)o2)c(C)n1CC1COc2ccccc2O1 (stereo unspecified)	–	inconclusive [cytotoxic, single point]
O=c1[nH]c(-c2ccccc2)nnc1-c1ccccc1	inactive: 11.7%	–
C=C1C(=O)O[C@H]2C[C@]3(C)C([C@@H](OC(=O)/C(C)=C/C)[C@H]12)[C@](C)(O)CC[C@H]3O (stereo partly specified)	–	inconclusive [cytotoxic, single point]
CNC(=O)Nc1ccccc1F	inactive: 0.148%	–
C/C(=N\NC(=O)c1c[nH]c2ccccc12)c1ccccn1	–	inconclusive [cytotoxic, partial curve]
NCCc1nc(-c2ccccc2)cs1	inactive: -3.12%	–
CCc1ccc(NC(=O)C2CCCN(S(=O)(=O)c3c(C)[nH]c(=O)[nH]c3=O)C2)cc1 (stereo unspecified)	–	inconclusive [rising, partial curve]
Cc1cc(NC(=S)N(Cc2ccc(Br)cc2)Cc2ccc(C(=O)O)cc2)ccc1Cl	–	inconclusive [cytotoxic, partial curve]
O=C(Nc1ccc2oc(-c3ccccc3Cl)nc2c1)c1cncc(Br)c1	–	inconclusive [cytotoxic, single point]
CN(CCc1ccccn1)C(=S)Nc1ccc(Cl)c(Cl)c1	inactive: -21.6%	–
Oc1ccc(Nc2nc(-c3ccccc3F)nc3ccccc23)cc1	inactive: -10.2%	–
CC(C)(C)n1nc2c(c1NC(=O)c1ccc(Cl)c([N+](=O)[O-])c1)CS(=O)(=O)C2	–	inconclusive [cytotoxic, single point]
COc1cccc(C=O)c1OCCCOc1cccc2cccnc12	–	inconclusive [cytotoxic, single point]

SMILES	activity, negative = less viability	Potency
Cc1cc(=O)n2c(C(=O)Nc3ccc(C(=O)OC(C)C)cc3)c(C(=O)Nc3ccccc3)sc2n1	–	inconclusive [cytotoxic, single point]
Cc1ccc(S(=O)(=O)N(C)c2ccc3c(ncn3C)c2[N+](=O)[O-])cc1	inactive: -5.08%	–
CSc1ccc(S(=O)(=O)NCCOc2ccccc2C)cc1	–	inconclusive [cytotoxic, single point]
COc1cccc(N(C(=O)c2snc(C(N)=O)c2N)C(C(=O)NCC2CCCO2)c2ccc(F)cc2)c1 (stereo unspecified)	inactive: -2.41%	–
COCCNC(=O)c1onc(CSc2cccc(Cl)c2)c1C(=O)O	–	inconclusive [cytotoxic, single point]
CCc1nc2c(OCc3ccc(Cl)cc3)cccn2c1N(C)C(=O)c1ccc(C)cc1	–	inconclusive [cytotoxic, single point]
Cc1cccc(NC(=O)CN2CCN(C(=O)C3CCC3)CC2)c1C	inactive: -1.9%	–
Cc1nn(-c2ccccc2)c(N2CCCC2)c1/C=N/NC(=O)c1cc(-c2cccnc2)nc2ccccc12	inactive: -29.4%	–
O=C1CSC(c2nn(-c3ccccc3)cc2-c2cc3ccccc3oc2=O)N1Cc1ccco1 (stereo unspecified)	–	inconclusive [cytotoxic, single point]
CCNS(=O)(=O)c1ccc(CCC(=O)Nc2cc(Cl)ccc2Oc2ccccc2)cc1	–	inconclusive [cytotoxic, single point]
COc1ccc(C(=O)Nc2ccc3c4c(cccc24)CC3)cc1	inactive: -15.5%	–
FC(F)(F)c1cccc(NC(=S)Nc2cccc(Cl)c2)c1	–	inconclusive [cytotoxic, single point]
CC(=O)NCCNC(=O)C1(C)Cc2c(-c3ccccc3)ccnc2O1 (stereo unspecified)	–	inconclusive [rising, single point]
O=C(COCC(=O)Nc1cccc(C(F)(F)F)c1)Nc1cccc(C(F)(F)F)c1	–	inconclusive [cytotoxic, single point]
Cc1cc2ccccc2n1CCNC(=O)C1CCCC1	inactive: 16.2%	–
Cc1[nH]ccc2cc3nc4ccccc4c3cc12	–	active: 14.6 µM
CCCCCCCCCCCC(=O)NC(C(=O)OCC)C(O)c1cccc([N+](=O)[O-])c1 (stereo unspecified)	–	inconclusive [cytotoxic, single point]
Cc1nc(N/N=C/c2ccccn2)sc1C	–	active: 13 µM
CN1C[C@@H]2C(c3ccc(C(F)(F)F)cc3)C3(c4cccnc4)CC2(C3)[C@H]1c1ccccc1 (stereo partly specified)	–	inconclusive [cytotoxic, partial curve]
Cc1cc(C(=O)CSc2nc3ccccc3[nH]2)c(C)n1Cc1ccco1	–	inconclusive [cytotoxic, single point]
COCCNC(=S)N/N=C(\C)c1ccc(Cl)s1	inconclusive: -37.6% [cytotoxic]	–
NC(c1csc(Nc2ccc(C(=O)c3ccccc3)cc2)n1)C1CCCCC1 (stereo unspecified)	–	inconclusive [cytotoxic, single point]
Cc1cc(C(=O)CCl)c(C)n1-c1ccon1	inactive: -28%	–
